Experimental data published in the supplement of paper PMC7826260.
Some of the results follow. Viral Rep nickase domains cut single-stranded DNA in vitro (1 h at 37 °C, 3 µM enzyme); the outer parts of the 90-letter strands are left off. Numbers give uncut DNA relative to the enzyme-free pool, as log2; the lower, the more was cut; hits are not called. Counts are relative to all reads; values above 0 arise when much of the pool is cut.

Experiments:
Assay in all cases: uncleaved DNA left, log2 of reads against the no-enzyme library (log2 ratio); higher = less cleavage (more negative = more Rep cleavage of the k-mer); sequences stand for … in CTCGTCCG…ACCGGAGA
[1] = test system: T1, Rep nickase domain of Muscovy duck circovirus
T1 sequence (Rep 1-111, printed without the tag): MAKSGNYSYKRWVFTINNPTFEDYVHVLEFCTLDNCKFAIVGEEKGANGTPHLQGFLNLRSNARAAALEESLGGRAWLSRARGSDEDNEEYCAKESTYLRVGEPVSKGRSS
Method: (§1)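 A pool of 90-nt single-stranded DNAs with seven random bases just before the constant AC of the nick site (name = the seven bases) was cut by 3 µM recombinant His6-SUMO-tagged Rep nickase domain (300 nM DNA, 50 mM HEPES pH 8.0, 50 mM NaCl, 1 mM MnCl2, 1 h, 37 °C, three replicates). Uncut DNA was amplified and sequenced.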

[2] = test system: T2, Rep nickase domain of banana bunchy top virus
T2 sequence (Rep 1-94, printed without the tag): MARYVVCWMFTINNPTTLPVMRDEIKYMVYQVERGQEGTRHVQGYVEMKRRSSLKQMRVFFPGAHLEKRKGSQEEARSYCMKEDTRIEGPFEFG
Method: as §1

[3] = test system: T3, Rep nickase domain of cabbage leaf curl virus
T3 sequence (Rep 1-116, printed without the tag): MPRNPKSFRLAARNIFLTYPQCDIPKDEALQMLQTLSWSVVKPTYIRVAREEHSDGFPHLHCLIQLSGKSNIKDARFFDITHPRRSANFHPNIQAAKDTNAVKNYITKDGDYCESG
Method: as §1

[4] = test system: T4, Rep nickase domain of chickpea chlorotic dwarf virus
T4 sequence (Rep 1-124, printed without the tag): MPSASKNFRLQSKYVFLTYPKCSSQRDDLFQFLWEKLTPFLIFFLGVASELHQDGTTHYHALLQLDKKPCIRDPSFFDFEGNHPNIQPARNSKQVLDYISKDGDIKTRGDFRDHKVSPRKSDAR
Method: as §1

[5] = test system: T5, Rep nickase domain of faba bean necrotic yellows virus
T5 sequence (Rep 1-98, printed without the tag): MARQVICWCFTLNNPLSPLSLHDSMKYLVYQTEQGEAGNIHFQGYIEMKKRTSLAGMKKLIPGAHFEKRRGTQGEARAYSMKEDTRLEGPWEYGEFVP
Method: as §1

[6] = test system: T6, Rep nickase domain of maize striate mosaic virus
T6 sequence (Rep 1-117, printed without the tag): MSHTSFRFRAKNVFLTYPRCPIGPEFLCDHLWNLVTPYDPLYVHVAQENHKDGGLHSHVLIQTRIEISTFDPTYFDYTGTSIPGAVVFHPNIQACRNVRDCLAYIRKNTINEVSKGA
Method: as §1

[7] = test system: T7, Rep nickase domain of porcine circovirus 2
T7 sequence (Rep 2-116, printed without the tag): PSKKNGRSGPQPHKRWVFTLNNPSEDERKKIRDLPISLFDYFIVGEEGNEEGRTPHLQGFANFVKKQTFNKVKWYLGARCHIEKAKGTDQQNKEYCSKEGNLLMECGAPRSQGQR
Method: as §1

[8] = test system: T8, Rep nickase domain of tomato yellow leaf curl virus
T8 sequence (Rep 1-136, printed without the tag): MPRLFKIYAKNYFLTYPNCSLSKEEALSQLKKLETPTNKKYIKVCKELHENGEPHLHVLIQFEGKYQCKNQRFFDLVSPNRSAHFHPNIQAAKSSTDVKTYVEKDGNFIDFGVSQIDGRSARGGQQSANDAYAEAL
Method: as §1

[9] = test system: T9, Rep nickase domain of wheat dwarf virus
T9 sequence (Rep 1-137, printed without the tag): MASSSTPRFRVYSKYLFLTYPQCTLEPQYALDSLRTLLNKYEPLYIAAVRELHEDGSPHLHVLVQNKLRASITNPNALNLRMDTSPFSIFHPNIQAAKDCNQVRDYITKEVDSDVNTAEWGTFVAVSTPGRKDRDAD
Method: as §1

Sequence | uncleaved DNA left (log2) [1] | uncleaved DNA left (log2) [2] | uncleaved DNA left (log2) [3] | uncleaved DNA left (log2) [4] | uncleaved DNA left (log2) [5] | uncleaved DNA left (log2) [6] | uncleaved DNA left (log2) [7] | uncleaved DNA left (log2) [8] | uncleaved DNA left (log2) [9]
AAGGAAT | 0.16 | 0.192 | 0.283 | 1.76 | 0.127 | 1.95 | 0.274 | 0.033 | 0.154
CACGGCT | 0.072 | 0.00776 | -0.161 | -1.12 | 0.0113 | -0.577 | -0.0186 | -0.11 | -0.0124
CTTCGAG | -0.0312 | -0.034 | -0.00885 | 0.223 | 0.0602 | -0.985 | 0.143 | 0.0851 | -0.0508
TCATAAA | 0.00065 | -0.0941 | -0.00284 | -0.144 | 0.132 | -0.683 | 0.122 | 0.0252 | -0.0236
CGTACCG | 0.00423 | -0.032 | -0.724 | -0.808 | 0.0291 | -1.01 | 0.0993 | 0.00754 | -0.0886
GAGGTCG | 0.132 | -0.0452 | -0.421 | -0.292 | 0.0956 | -0.515 | 0.174 | 0.172 | -0.0452
GTCCTTG | -0.104 | 0.0242 | 0.27 | 0.668 | -0.0839 | 1.69 | 0.0325 | 0.0528 | -0.0539
AGCAGTT | 0.165 | 0.0606 | 0.0297 | -0.655 | 0.00255 | 0.432 | -0.332 | -0.00458 | 0.114
TTCCTTG | 0.114 | 0.0562 | -0.428 | -1.2 | -0.013 | -1.02 | 0.107 | 0.103 | -0.00109
TCGCTAA | -0.0121 | 0.0498 | 0.0146 | -0.309 | 0.0476 | -0.487 | -0.0935 | -0.00576 | 0.00453
CGCGGAT | 0.16 | 0.00364 | 0.322 | 1.36 | -0.000227 | 1.72 | 0.173 | -0.0311 | -0.0261
AAACGGA | 0.0348 | -0.0107 | 0.0612 | 0.418 | 0.00603 | 0.108 | 0.0216 | -0.0787 | 0.0212
GCACCGC | -0.108 | 0.0474 | -0.244 | -0.161 | 0.061 | -0.475 | 0.0519 | 0.00466 | 0.0321
CGGAGCG | -0.011 | -0.0261 | -0.751 | -0.658 | -0.0609 | -1.11 | 0.142 | 0.0575 | -0.179
GCCGCAC | 0.091 | 0.16 | 0.174 | 0.323 | 0.117 | -0.115 | 0.152 | 0.0637 | 0.054
AGAACAT | 0.141 | 0.218 | 0.747 | 1.67 | -0.0526 | 1.91 | 0.215 | 0.0859 | 0.246
GATTTGC | -0.0406 | -0.0961 | -0.715 | -0.372 | 0.0156 | -1.01 | -0.0851 | -0.0226 | -0.206
AGAGATA | 0.0552 | -0.0503 | 0.00204 | 0.246 | 0.0611 | 0.947 | -0.144 | -0.0929 | 0.00209
TCGAGAC | 0.136 | 0.00791 | 0.842 | 1.3 | 0.015 | 1.56 | -0.0322 | 0.0581 | 0.2
CGCCGCG | -0.136 | -0.101 | -0.732 | 0.05 | -0.0675 | -0.683 | 0.0504 | -0.143 | -0.0756
ATGGGCC | 0.134 | 0.111 | 0.0947 | 0.491 | 0.0313 | 0.105 | 0.108 | 0.106 | 0.0883
TTTGGGG | 0.0857 | 0.102 | 0.225 | 0.315 | 0.0392 | -0.096 | 0.237 | -0.038 | -0.0263
AACATAC | 0.0722 | 0.00947 | -0.103 | -0.861 | 0.0576 | -1.07 | 0.145 | -0.00818 | 0.00125
GCTCACG | -0.0377 | -0.137 | -0.91 | -0.439 | 0.0345 | -0.886 | 0.126 | -0.0338 | -0.177
CGCTAGT | -0.96 | -0.19 | -0.206 | -0.331 | -0.092 | -0.682 | -2.71 | -0.0815 | -0.0766
TATCACG | 0.0718 | 0.0657 | -0.714 | -0.821 | 0.165 | -1.13 | 0.187 | 0.0116 | -0.0175
AACTAAT | -3.17 | -3.34 | -1.05 | -2.51 | -0.233 | -0.732 | -3.9 | -0.254 | -0.153
TAGTCAT | -0.238 | -0.9 | 0.0186 | -0.745 | -0.366 | 0.938 | -3.83 | 0.238 | 0.173
TACAGCG | 0.00245 | -0.0387 | -0.681 | 0.557 | 0.014 | -0.318 | 0.0639 | -0.0773 | -0.0869
AACTAAC | 0.0467 | -0.0689 | -0.504 | -2.03 | -0.00863 | -0.881 | -0.478 | -0.0238 | 0.026
